The record followed here is PMC12136788.

To fix the notation:
B1: ENSG00000198589:be:win_1151|CDS|ENSG00000198589|bound_else_gene|NA|bound_elsewhere_windowed (ssRNA)
RNA: GGGAGUUCUACAGUCCGACGAUCUGGGAUACAAGGGUACAUUUAAAUUCAAAGCAGAAAGCGACCUUUUCCUUGCUGAGCAUCACAAACUUUUAUUGUACGAUGGGAAACUCUCUAGUGCCAUUGCAUUCACGUACAAUCCACCAACAGAGGAUUGAGCAUCA
B2: chr14:22589090:22589186:-|5pUTR_CDS|ENSG00000129562|msi1_unk|total|mutant (ssRNA)
RNA: GGGAGUUCUACAGUCCGACGAUCUCCUCCAAGAGUUUGGGGCGCGGACCGGAGUACCUUGCGUGCAGUUAUGUCGGCGUCGGCCGUGUCUGUCAUUUCGCGGUUCUCCGAAGAGUACUUGAGCUCCACUCCGCAGCGUCUGAACAACAGAGGAUUGAGCAUCA
B3: chr9:91409354:91409467:-|CDS|ENSG00000165030|unk|total|mutant (ssRNA)
RNA: GGGAGUUCUACAGUCCGACGAUCAAUGAAAGACAGUGGCUACAAAGUUUCUGACCCAGAGAACUUGUAUUUGAAGCAGGGGACCGCAAACUUAUCUGCAGAGGUUGUCUCACUCAAGAGACUUACCGCCACACAACCAAUCUCCAACAGAGGAUUGAGCAUCA
B4: chr2:1633339:1633490:-|3pUTR|ENSG00000130508|msi1|FALSE|unique (ssRNA)
RNA: GGGAGUUCUACAGUCCGACGAUCUUCAUAAGCCACAUUUAGAAACAGGUUUGCUUUCAGCUGUCACUUGCACACAUACUGCCUAGUUGUGAACCAAAUGUGAAAAAACCUCCUUCAUCCCAUUGUGUAUCUGAUACCUGCCGACAACAGAGGAUUGAGCAUCA
B5: chr10:103999120:103999255:+|CDS|ENSG00000065613|unk|total|mutant (ssRNA)
RNA: GGGAGUUCUACAGUCCGACGAUCAUCUAAGGACAGACCCUAUGACUACAAAGCUGAUGUUUGGUCCCUGGGUAUCACUUUAACCGAAAUGGCUGAGACCGAACCACCUCAUCAUGAAUUAAAUCCAAUGCGAGUGCUGCUAAACAACAGAGGAUUGAGCAUCA
B6: chr7:115017934:115018035:+|3pUTR|ENSG00000135272|unk|total|mutant (ssRNA)
RNA: GGGAGUUCUACAGUCCGACGAUCUGAGAUGAAACGCCGUUUCCCGUUAUAUCAUUACUUAAAGGGCUUAAAAAGAAAAAACUCCGCAAACUUUUGAAUCUUUCUUUUAUUGCUAUUUACACAUACAUACACACAUACAAAACCCAACAGAGGAUUGAGCAUCA
B7: chr1:90030187:90030288:+|3pUTR|ENSG00000162664|unk|FALSE|unique (ssRNA)
RNA: GGGAGUUCUACAGUCCGACGAUCACCCAGUUCAAGUCAUGAUAAUUUCUUGUUAACUAAUCUUGAUUCCACCCUUACCAUGAUAGAUUCAGUUUUCUACACAAGUAUAAGCUUUUAAAAAUGUAAUUCAGAUGAUGUUAAUCUCAACAGAGGAUUGAGCAUCA
B8: chr2:200815332:200815484:+|CDS|ENSG00000082153|unk|FALSE|bound_elsewhere (ssRNA)
RNA: GGGAGUUCUACAGUCCGACGAUCUCAGUUUCAAGACUGUAUUAUUCAAGGCUUAACUGAAACCGGUACUGAUUUGGAAGCAGUAGCUAAGUUUCUUGAUGCUUCUGGAGCAAAACUUGAUUACCGUCGAUAUGCAGAAACACUCAACAGAGGAUUGAGCAUCA
B9: chr22:36488912:36489013:-|3pUTR|ENSG00000100350|msi1|total|mutant (ssRNA)
RNA: GGGAGUUCUACAGUCCGACGAUCCCCGUCUCUUCUUCAUUGCCCUUCCUCACCAGCAAUCUGCACUUUCCCAUCAGGCGUCUCCGUCUCAUUUGUAAGUGCAUAAGAUAAUCACAGUGAUUUUUCAAAGCCCAGGAUCAUAAGCAACAGAGGAUUGAGCAUCA
B10: chr10:62807900:62808002:+|3pUTR|ENSG00000181915|unk|FALSE|unique (ssRNA)
RNA: GGGAGUUCUACAGUCCGACGAUCCAAAAAGUUGAUUAGCUUACCAAGAUUAUUAAUAGCAAUGUAUGUGUUAUAAUACAACUUAGUACAUUAAAGCUACGAAAACUCAUCCUGGCUGUAGGAUAGUAAUAAAGGAAGAAUUAUCAACAGAGGAUUGAGCAUCA
B11: chr20:2117184:2117286:+|CDS|ENSG00000125834|unk|total|mutant (ssRNA)
RNA: GGGAGUUCUACAGUCCGACGAUCGCUCCUGGGGACCUACAUUAAACAGGGGACUGAGAUCGUCCCUGUUGGUGAGGCGCUGCCCGAAAACCCAAAGAUGGAGUUGCACAUCCCCCAAAAACGCAGGACUUCCAUGUCUGAGGGCAACAGAGGAUUGAGCAUCA
B12: chr14:31448131:31448454:-|CDS|ENSG00000129480|control|control|control (ssRNA)
RNA: GGGAGUUCUACAGUCCGACGAUCUGUGACUCUAUGUGAAAAAGAAGUAGCUGCUAAUAGCAAGUGUGCUGAAGCUAGGGUUGUAGUGGAACAUGGCACUUAUGGGAACAGGCAGGUGUUAAAGCUGGACACCAACGGACCAUUCAACAGAGGAUUGAGCAUCA
B13: chr8:37846853:37847175:-|CDS|ENSG00000104221|control|control|control (ssRNA)
RNA: GGGAGUUCUACAGUCCGACGAUCGGCCAUCUGCACGCUGUUGUAUGCAGAUUUGGAUGUGUUUUCUAGCACUUACAUGCAGAUAGUGAAGCUCCUGGGACUGGAUGUGCCAUCUCUGUGCUUGGCAGAACUGGUGAAGACCUACAACAGAGGAUUGAGCAUCA
B14: ENSG00000044574:stop:overlap|stop_codon|ENSG00000044574|stop_codon|NA|stop_codon (ssRNA)
RNA: GGGAGUUCUACAGUCCGACGAUCAUGGAAGUGCAGGCCCUCCCCCAACUGGUGAAGAGGAUACAGCAGAAAAAGAUGAGUUGUAGACACUGAUCUGCUAGUGCUGUAAUAUUGUAAAUACUGGACUCAGGAACUUUUGUUAGGCAACAGAGGAUUGAGCAUCA

The other results are listed elsewhere or left out.

In this test the target is MSI1 full-length (mouse, UniProt Q61474 1-362). Description: nsRBNS (natural sequence RNA bind-n-seq); RBNS binding buffer (assumed for nsRBNS): 25 mM Tris pH 7.5, 150 mM KCl, 3 mM MgCl2, 0.01% Triton X-100, 500 ug/ml BSA, 20 U/ml SUPERase-In, 4 C; UNK is unkempt and MSI1 is Musashi-1; names of the RNAs are library labels; protein concentration not given here; high values mean tight binding.
UniProt Q61474, sequence (Q61474 whole entry): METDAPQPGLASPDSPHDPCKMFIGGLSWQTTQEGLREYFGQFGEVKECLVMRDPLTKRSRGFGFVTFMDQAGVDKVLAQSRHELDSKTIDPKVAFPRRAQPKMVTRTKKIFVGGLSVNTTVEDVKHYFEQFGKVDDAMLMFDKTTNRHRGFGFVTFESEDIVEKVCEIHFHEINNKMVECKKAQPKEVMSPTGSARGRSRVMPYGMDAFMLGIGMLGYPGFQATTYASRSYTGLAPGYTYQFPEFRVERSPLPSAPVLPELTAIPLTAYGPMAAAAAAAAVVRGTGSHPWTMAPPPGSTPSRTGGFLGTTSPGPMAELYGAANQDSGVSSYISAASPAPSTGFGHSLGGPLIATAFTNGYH
Regarding B1, the binding signal came to 0.307 enrichment R.

B2 yielded a binding signal of 0.324 enrichment R.

In turn, B3 had a binding signal of 0.409 enrichment R.

With B4, the binding signal was 0.34 enrichment R.

As for B5, the binding signal came out at 0.32 enrichment R.

The molecule B6 returned a binding signal of 11.7 enrichment R.

For the molecule B7, the binding signal turned out to be 2.46 enrichment R.

B8 yielded a binding signal of 0.196 enrichment R.

In turn, B9 showed a binding signal of 0.467 enrichment R.

For the molecule B10, the binding signal was 2.03 enrichment R.

As for B11, the binding signal was 0.615 enrichment R.

B12 displayed a binding signal of 0.747 enrichment R.

Molecule B13 showed a binding signal of 0.299 enrichment R.

B14 yielded a binding signal of 1.5 enrichment R.
